Assay results: article PMC4336329 (PLoS ONE, 2015)
Out of some 310,000 compounds screened, about 2,200 (0.71%) showed an effect of 50% or more. The effect is printed as a negative number. The list shows a part of the results.

What follows are molecules tested against human ether-à-go-go-related gene (hERG) potassium channel (human, UniProt Q12809) (assay: primary screen, population patch clamp on CHO cells stably expressing hERG).
Sequence of human ether-à-go-go-related gene (hERG) potassium channel (Q12809 whole entry, looked up): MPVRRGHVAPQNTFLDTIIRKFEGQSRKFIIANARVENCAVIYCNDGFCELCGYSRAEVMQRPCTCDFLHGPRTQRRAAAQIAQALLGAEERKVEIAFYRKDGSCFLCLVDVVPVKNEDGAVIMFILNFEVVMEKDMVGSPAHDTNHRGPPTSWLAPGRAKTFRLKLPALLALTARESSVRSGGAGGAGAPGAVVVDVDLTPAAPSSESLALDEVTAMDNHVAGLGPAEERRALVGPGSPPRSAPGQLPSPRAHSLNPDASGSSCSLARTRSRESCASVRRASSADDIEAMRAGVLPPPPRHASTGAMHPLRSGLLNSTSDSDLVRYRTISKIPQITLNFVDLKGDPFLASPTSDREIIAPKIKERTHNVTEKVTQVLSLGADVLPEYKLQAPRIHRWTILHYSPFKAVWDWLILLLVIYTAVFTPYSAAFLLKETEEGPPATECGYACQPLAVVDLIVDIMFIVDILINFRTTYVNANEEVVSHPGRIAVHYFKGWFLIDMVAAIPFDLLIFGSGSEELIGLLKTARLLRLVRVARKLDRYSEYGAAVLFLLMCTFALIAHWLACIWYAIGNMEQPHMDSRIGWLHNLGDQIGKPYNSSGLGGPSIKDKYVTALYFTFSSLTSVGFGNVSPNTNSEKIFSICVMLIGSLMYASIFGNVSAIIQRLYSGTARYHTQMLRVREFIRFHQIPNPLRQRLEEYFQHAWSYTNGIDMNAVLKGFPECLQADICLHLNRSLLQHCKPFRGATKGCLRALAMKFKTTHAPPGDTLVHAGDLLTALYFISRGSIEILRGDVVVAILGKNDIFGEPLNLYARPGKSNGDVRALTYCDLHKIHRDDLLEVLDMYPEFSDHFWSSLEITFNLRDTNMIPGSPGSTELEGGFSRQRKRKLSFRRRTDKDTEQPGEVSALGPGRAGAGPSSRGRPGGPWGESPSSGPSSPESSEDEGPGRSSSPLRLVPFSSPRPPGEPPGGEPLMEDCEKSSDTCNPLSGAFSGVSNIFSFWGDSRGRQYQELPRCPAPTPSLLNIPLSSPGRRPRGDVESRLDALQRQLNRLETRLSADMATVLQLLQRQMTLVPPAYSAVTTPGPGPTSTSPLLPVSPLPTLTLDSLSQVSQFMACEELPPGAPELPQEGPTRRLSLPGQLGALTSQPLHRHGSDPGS

| Structure (SMILES) | hERG current change (%, negative = inhibition) at 1uM [%] |
| --- | --- |
| COCCn1c(-c2ccc(Br)cc2)nc2oc3cc(OC)ccc3c(=O)c2c1=O | 8.33 |
| Cc1ccc(/C=N/N2CCN(c3ccccc3)CC2)cc1 | 4 |
| Cc1cccc(Nc2nnc(SCC(=O)Nc3cccnc3Cl)s2)c1 | 5.55 |
| COc1ccc(-c2cnnc(N/N=C/c3ccc(O)c(O)c3)n2)cc1 | 3.84 |
| Cc1ccc(N(C(=O)Nc2ccccc2)C2=NCC(C)S2)cc1 (stereo not drawn) | -12.7 |
| OCC(CO)(CO)NCC(O)CN1c2ccccc2Sc2ccccc21 (stereo not drawn) | 2.15 |
| O=C(Nc1ccnn1C1CCN(C(=O)c2ccc(C(F)(F)F)cc2)CC1)C1CC1 | -16.5 |
| Cc1ccc(C2=NN(Cc3nnc(-c4ccccc4)o3)C(=O)SC2)cc1 | 0.116 |
| Cc1ccc(C(=O)COC(=O)CNS(=O)(=O)c2ccc(C)cc2)cc1 | 14.9 |
| Cc1cc(=O)oc2c3c(ccc12)OC/C3=N/N | 16.7 |
| CCN(CC)c1ccc(Nc2cc3n(c(=O)n2)CCc2cc(OC)c(OC)cc2-3)cc1 | -7.6 |
| COc1ccc(/C=C/C(=O)O)cc1S(=O)(=O)N1CCCc2ccccc21 | 14.9 |
| COc1cccc(OCCNS(=O)(=O)c2cccc([N+](=O)[O-])c2)c1 | 10.5 |
| Cc1ccccc1C(=O)N1CCCC(N2CCN(Cc3ccc4c(c3)OCO4)CC2)C1 (stereo not drawn) | 4.56 |
| CC(O)(CS(=O)(=O)Cc1cccc(C(F)(F)F)c1)C(=O)Nc1cccc(C(F)(F)F)c1 (stereo not drawn) | 0.351 |
| N/C(=N\OC(=O)CCC1CCCC1)c1cccnc1 | 12.1 |
| CC1Sc2ccc(S(=O)(=O)NCCc3ccc(S(N)(=O)=O)cc3)cc2NC1=O (stereo not drawn) | 15.2 |
| CCCc1nnc(NC(=O)C2CCCO2)s1 (stereo not drawn) | 7.64 |
| Cn1cnc([N+](=O)[O-])c1NC(C)(C)C | 4.03 |
| COc1ccc(C(=O)c2c[nH]cc2-c2ccccc2)cc1 | 22.5 |
| Cn1c(-c2ccccc2)cnc1SCC(=O)N1CCCc2ccccc21 | 5.41 |
| CC1CCC(NC(=O)C2CCC(CNc3c(N4CCCCC4)c(=O)c3=O)CC2)CC1 (stereo not drawn) | 7.8 |
| CCCOc1ccc(OCC(=O)c2[nH]c(C)c(C(C)=O)c2C)cc1 | -0.788 |

| Structure (SMILES) | hERG current change (%, negative = inhibition) at 1uM [%] |
| --- | --- |
| N#Cc1cc(C(=O)c2ccccc2OCC(=O)Nc2ccccc2)cn(C2CCCCC2)c1=O | 13.1 |
| Cc1ccn2c(C(=O)CSc3ccc(Cl)cc3)c(C)nc2c1 | 13.5 |
| c1ccc2nc(-c3ccc(N4CCOCC4)cc3)ccc2c1 | 10.1 |
| Cc1nnc(SCc2cc(=O)[nH]c(/N=C(\N)Nc3ccccc3Sc3ccccc3)n2)s1 | 15.5 |
| CCC(=O)c1ccccc1OCCSc1nc(C)cc(=O)[nH]1 | 0.509 |
| CCOc1ccc(S(=O)(=O)N2CCCCCC2)cc1 | -1.39 |
| Cc1nn(CC(=O)Nc2ccc(N(C)C)cc2)c(C)c1[N+](=O)[O-] | 7.34 |
| O=C(NCc1nnc(SCc2ccc(F)cc2)n1-c1ccc(F)cc1)C12CC3CC(CC(C3)C1)C2 | 2.14 |
| CC(=O)Nc1ccc(N2CCCCC2)c(C(=O)Nc2cccc(C)c2)c1 | 5.96 |
| Cc1ccc(COn2nnc3ccc(S(=O)(=O)N4CCOCC4)cc32)cc1 | -4.65 |
| Cc1c(CCC(=O)O)c(=O)oc2cc(OCc3cccc(F)c3)ccc12 | 16.2 |
| CN1C(C(=O)Nc2ccccn2)=C(O)c2sccc2S1(=O)=O | 11.3 |
| O=c1cc(-c2ccccc2)[nH]c2ccccc12 | -2.63 |
| O=c1[nH]cccc1-c1nc2ccccc2n1Cc1cccc(Cl)c1 | 2.24 |
| [O-][Cl+3]([O-])([O-])[O-].c1ccc(C[n+]2ccccc2)cc1 | 11.5 |
| CN(C(=O)Nc1ccc(Cl)cc1Cl)C1CCCC1 | -1.25 |
| Cl.Nc1cc(F)ccc1N1CCCCCC1 | 12.7 |
| COc1ccc(-n2c(=S)[nH]c3cc(C(=O)NC4CCCCC4)ccc3c2=O)c(OC)c1 | 1.85 |
| O=C(Cc1ccc(F)cc1)N1CCC(CC2CC(c3cccc(Br)c3)=NO2)(C(=O)NCC2CCCCC2)CC1 (stereo not drawn) | 4.44 |
| COc1ccc(NC(=O)CCN2C(=O)C3CC=C(Cl)CC3C2=O)cc1 (stereo not drawn) | 8.21 |
| CCOC(=O)c1c(C)n(C)c2cc(Br)c(C)cc12 | 16.1 |
| O=C(CN1CCOCC1)N1N=C(c2cccs2)CC1c1cccs1 (stereo not drawn) | 14.8 |
| CN1CCc2c(C#N)c(N3CCOCC3)nc(NCC3CCCO3)c2C1 (stereo not drawn) | 13.3 |

| Structure (SMILES) | hERG current change (%, negative = inhibition) at 1uM [%] |
| --- | --- |
| CCOC(=O)c1cc2cc3ccccc3cc2[nH]1 | -6.48 |
| c1cncc(Nc2nc(-c3ccncc3)cs2)c1 | -5.37 |
| O=S(=O)(Nc1cccc(-n2cnnn2)c1)c1cnc(Cl)c(Cl)c1 | 6.97 |
| O=C(O)CN1CCN(Cc2ccccc2Cl)C1=O | 1.85 |
| CC1CC(C)CN(CCCNS(=O)(=O)c2ccc3c(c2)CCN3C(=O)C2CC2)C1 (stereo not drawn) | 8.06 |
| Cc1nc([N+](=O)[O-])c(Sc2nc3ccccc3n2C)n1Cc1ccccc1 | -5.26 |
| O=C1COc2ccc(C(=O)COC(=O)/C=C/c3cccc(F)c3)cc2N1 | 9.4 |
| COc1ccc(Cl)cc1NC(=O)CN(C)C(=O)c1ccc(COc2ccccc2)cc1 | 13.5 |
| CCCNC(=O)Cn1c(=O)oc2ccccc21 | -1.14 |
| Cc1ccc(NC(=O)c2ccc3c(c2)OCCO3)cc1S(=O)(=O)Nc1cccc(Cl)c1 | 12.3 |
| Cc1nc2c(ccc3c([N+](=O)[O-])cccc32)c(C)c1C | 16.7 |
| Cc1oc2c(C)c3oc(=O)c(CCC(=O)N4C[C@H]5C[C@@H](C4)c4cccc(=O)n4C5)c(C)c3cc2c1C | 1.88 |
| COc1ccccc1CNC(=O)C(NC(=O)c1ccccc1)C(C)C (stereo not drawn) | 10 |
| Fc1ccc(/C=N/n2cnn(Cc3ccccc3Cl)c2=S)cc1 | 17 |
| O=C(NNC1=Nc2ccccc2SC1)c1ccc(Cl)cc1 | 2.47 |
| COc1cccc(-c2cc(C(=O)NCC3CCCO3)on2)c1 (stereo not drawn) | 11.5 |
| COCCNC(=S)N1CCc2cc(OC)c(OC)cc2C1COc1ccc(F)cc1 (stereo not drawn) | -1.28 |
| COc1ccc(-c2nc3ccccc3nc2-c2ccccc2)cc1 | 18.1 |
| Cn1cc(C(CO)Cc2ccccc2)c2ccccc21 (stereo not drawn) | 6.21 |
| CCN(CC)CCCNC(=O)Cn1cnc2ccc(S(=O)(=O)N3CCC(C)CC3)cc2c1=O | 5.39 |
| CCc1nnc(NS(=O)(=O)c2ccc(NC(=O)c3ccccc3OC)cc2)s1 | 6.72 |
| Cc1ccc(CNc2ccc(N3C(=O)CC(C)C3=O)cc2[N+](=O)[O-])cc1 (stereo not drawn) | 10.1 |
| Cc1nc2ccccc2c(=O)n1-c1ccc(NS(=O)(=O)c2ccccc2)cc1 | -5.12 |

| Structure (SMILES) | hERG current change (%, negative = inhibition) at 1uM [%] |
| --- | --- |
| COc1ccc(F)cc1S(=O)(=O)NCC(=O)NCc1cc(=O)n(C)c(=O)n1C | 34.4 |
| OCC[C@H]1C[C@H](O)[C@@H](O)[C@@]2(CCc3ccccc3CO2)O1 | 11 |
| CNc1nc(SC)nc2ccsc12 | 16.6 |
| O=C(CSc1n[nH]c(=O)[nH]c1=O)N/N=C/C=C\c1ccccc1 | 19.1 |
| COc1ccc(CC(=O)Nc2cc(C)on2)cc1 | 6.62 |
| COc1cccc(CNc2nc3nc(C)cc(C)n3n2)c1 | 4.21 |
| C/C(CC(=O)Nc1ccc2c(c1)OCO2)=N\NC(=O)OC(C)(C)C | 6.49 |
| CCCCC(CCC(=O)Nc1ccn(-c2ccccc2)n1)C(=O)O (stereo not drawn) | 7.87 |
| COc1cc(C(=O)OC(C)CN2CCCC2)cc(OC)c1OC.Cl (stereo not drawn) | 6.76 |
| O=[N+]([O-])c1ccc(S(=O)(=O)Nc2ccc3c(c2)OCCO3)cc1 | 14 |
| Cc1nc2ccccc2n(CC(=O)Nc2cc(Cl)cc(Cl)c2)c1=O | 15.5 |
| Fc1ccc(Cn2nnc3ccccc32)cc1 | 12.8 |
| COc1ccc(N=C2SCC(=O)N2c2ccc(OC)cc2)cc1 | 7.33 |
| COC(CN(C)C(=O)C1CCC(CNS(=O)(=O)c2ccccc2)CC1)OC (stereo not drawn) | 15.7 |
| CCCn1c(-c2ccc(OC)cc2)nc2c(=O)n(C)c(=O)[nH]c21 | 14.8 |
| CC1=NNC(=O)C1CCC(=O)N/N=C/C=C/c1ccccc1 (stereo not drawn) | 11.3 |
| CCN(CC(=O)Nc1c(F)cccc1F)C(=O)c1nc2nccc(C)n2n1 | 4.62 |
| Oc1ccc(/C=N/NC(=S)NCCN2CCOCC2)c(O)c1 | 8.12 |
| CN(C)CCCNc1nc(N)c([N+](=O)[O-])c(NCCO)n1 | 17 |
| CC1CCCCN1C(=O)c1ccc(C(=O)Nc2ccc(F)cc2)cc1 (stereo not drawn) | 2.29 |
| C[C@@H](CN=[N+]=[N-])CN1CC[C@H](C(C)(C)C)CCC1=O | 9.49 |
